Experimental data taken from the supplement of paper PMC4604168 (melanoma cell lines).
The other results are listed elsewhere or left out. Most values come without repeats; read them as rough.

Tests used:
Assay in all cases: cell count relative to DMSO control; melanoma cells; higher = more viable cells
Settings in all cases: library dose: standard library concentration; 72 h
G361 = system: G361
IPC-298 = system: IPC-298
IST-MEL1 = system: IST-MEL1
LB2518-MEL = system: LB2518-MEL
LOXIMVI = system: LOXIMVI
MEL-HO = system: MEL-HO
MZ2-MEL = system: MZ2-MEL
MeWo = system: MeWo
RPMI7951 = system: RPMI7951
RVH-421 = system: RVH-421
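Note: cells treated in 1,536-well plates, then fixed and DAPI-stained, with nuclei counted from automated high-throughput microscope images.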

Structure (SMILES)	cell count (G361)	cell count (IPC-298)	cell count (IST-MEL1)	cell count (LB2518-MEL)	cell count (LOXIMVI)	cell count (MEL-HO)	cell count (MZ2-MEL)	cell count (MeWo)	cell count (RPMI7951)	cell count (RVH-421)
C[C@@H]1CCN(C(=O)CC#N)C[C@@H]1N(C)c1ncnc2[nH]ccc12 + CC(C)CCN1c2nc(Nc3cc(F)c(O)c(F)c3)ncc2N(C)C(=O)C1C [BID1870] (first compound 5 µM, partner dose 1 µM)	18.2%	76%	78.5%	124%	104%	80.7%	82.9%	78.2%	96%	106%
COc1cc(Nc2ncc(F)c(Nc3ccc4c(n3)NC(=O)C(C)(C)O4)n2)cc(OC)c1OC [Tamatinib] + C[C@@H]1CCN(C(=O)CC#N)C[C@@H]1N(C)c1ncnc2[nH]ccc12 [CP690550] (first compound 2 µM, partner dose 5 µM)	79.8%	88.6%	57.6%	83.6%	28.6%	72.3%	84%	69%	38%	102%
O=C(Nc1cccc(Cl)c1)Nc1ncc(CCNc2ncnc3ccsc23)s1 + O=c1cc(-c2cccc3c2Sc2ccccc2S3)oc(N2CCOCC2)c1 [KU55933] (first compound 0.004 µM, partner dose 5 µM)	65.6%	89.2%	57.4%	97%	56.5%	77%	96.8%	68.4%	62.8%	91.6%
CC1(C)NC(=O)N(c2ccc([N+](=O)[O-])c(C(F)(F)F)c2)C1=O [nilutamide] + COc1cc(N2CCC(N3CCN(C)CC3)CC2)ccc1Nc1ncc(Cl)c(Nc2ccccc2S(=O)(=O)C(C)C)n1 [NVP-TAE684] (first compound 5 µM, partner dose 0.4 µM)	87.4%	111%	98%	96.3%	78.1%	91.1%	96.6%	79.6%	60.5%	87.2%
COc1cc(Nc2ncc(F)c(Nc3ccc4c(n3)NC(=O)C(C)(C)O4)n2)cc(OC)c1OC [Tamatinib] + O=S(=O)(c1ccccc1)N(CC(F)(F)F)c1ccc(C(O)(C(F)(F)F)C(F)(F)F)cc1 [T0901317] (first compound 2 µM, partner dose 7 µM)	46.7%	63.7%	60.2%	95%	25.6%	72.9%	52.1%	69.7%	39.3%	60.5%
O=c1[nH]nc(Sc2ncc([N+](=O)[O-])s2)n1-c1ccc2c(c1)OCCO2 + CCN(CC)CCNC(=O)c1c(C)[nH]c(/C=C2\C(=O)Nc3ccc(F)cc32)c1C [sunitinib] (first compound 1 µM, partner dose 2 µM)	82.5%	78.6%	85.4%	62.7%	129%	91%	90.7%	66%	60.2%	77.4%
CC1(C)NC(=O)N(c2ccc([N+](=O)[O-])c(C(F)(F)F)c2)C1=O [nilutamide] + CC(C)(C)c1cnc(CSc2cnc(NC(=O)C3CCNCC3)s2)o1 [SNS-032] (first compound 5 µM, partner dose 0.05 µM)	85.3%	121%	93.9%	82.4%	84.3%	92.5%	96.5%	88.2%	38.1%	130%
C[C@@H]1CCN(C(=O)CC#N)C[C@@H]1N(C)c1ncnc2[nH]ccc12 + O=C(O)C(=O)Nc1sc2c(c1C(=O)O)CCNC2 [TCS401] (first compound 5 µM, partner dose 8.33333 µM)	107%	107%	100%	96.8%	103%	97.3%	95.8%	102%	100%	83.3%
O=c1[nH]nc(Sc2ncc([N+](=O)[O-])s2)n1-c1ccc2c(c1)OCCO2 + CO[C@@H]1[C@H](N(C)C(=O)c2ccccc2)C[C@H]2O[C@]1(C)n1c3ccccc3c3c4c(c5c6ccccc6n2c5c31)C(=O)NC4 [Midostaurin] (first compound 1 µM, partner dose 0.4 µM)	55.5%	64.4%	57.8%	48.5%	75.4%	75%	56.9%	75.6%	165%	60.5%
CC1(C)NC(=O)N(c2ccc([N+](=O)[O-])c(C(F)(F)F)c2)C1=O [nilutamide] + COc1cc2c(Oc3ccc4[nH]c(C)cc4c3F)ncnc2cc1OCCCN1CCCC1 [cediranib] (first compound 5 µM, partner dose 2 µM)	92.2%	104%	104%	93.4%	67.1%	93.6%	105%	77.7%	74.9%	94.5%
Cn1cncc1[C@@](N)(c1ccc(Cl)cc1)c1ccc2c(c1)c(-c1cccc(Cl)c1)cc(=O)n2C [tipifarnib] + O=C(O)C(=O)Nc1sc2c(c1C(=O)O)CCNC2 [TCS401] (first compound 0.05 µM, partner dose 8.33333 µM)	96.9%	87.5%	97%	69.4%	88.7%	94.6%	87%	86.2%	82.8%	75.2%
C[C@@H]1CCN(C(=O)CC#N)C[C@@H]1N(C)c1ncnc2[nH]ccc12 + COc1cc2ncnc(Nc3ccc(Oc4ccccc4)cc3)c2cc1OC [SrcI1] (first compound 5 µM, partner dose 10 µM)	77%	81.7%	84.1%	134%	85.7%	88%	72%	88.5%	51.5%	110%
O=c1[nH]nc(Sc2ncc([N+](=O)[O-])s2)n1-c1ccc2c(c1)OCCO2 + Cn1cc(/C=C2\C(=O)Nc3cccnc32)c2ccccc21 [GW441756] (first compound 1 µM, partner dose 2 µM)	90.5%	82.3%	98.3%	74.4%	103%	91.8%	94.4%	103%	82.1%	106%
COc1cc(Nc2ncc(F)c(Nc3ccc4c(n3)NC(=O)C(C)(C)O4)n2)cc(OC)c1OC [Tamatinib] + CCCCCCCCCCCC1=C(O)C(=O)C=C(O)C1=O [Embelin] (first compound 2 µM, partner dose 6 µM)	77.7%	74.8%	68.2%	56%	36.8%	70.3%	62.5%	93.4%	55.8%	72%
O=c1[nH]nc(Sc2ncc([N+](=O)[O-])s2)n1-c1ccc2c(c1)OCCO2 + NCC(=O)Nc1ccc(-n2nc(C(F)(F)F)cc2-c2ccc3c(ccc4ccccc43)c2)cc1 [OSU03012] (first compound 1 µM, partner dose 5 µM)	83.4%	64.1%	86%	110%	79.5%	94.4%	122%	102%	147%	98%
COc1cc(Nc2ncc(F)c(Nc3ccc4c(n3)NC(=O)C(C)(C)O4)n2)cc(OC)c1OC [Tamatinib] + Cn1cncc1[C@@](N)(c1ccc(Cl)cc1)c1ccc2c(c1)c(-c1cccc(Cl)c1)cc(=O)n2C [tipifarnib] (first compound 2 µM, partner dose 0.05 µM)	67.8%	66.9%	46.8%	60.7%	28.9%	71.1%	85.5%	63.8%	20.1%	81.4%
CC1(C)NC(=O)N(c2ccc([N+](=O)[O-])c(C(F)(F)F)c2)C1=O [nilutamide] + NC(=O)Nc1cc(-c2cccc(F)c2)sc1C(=O)N[C@H]1CCCNC1 [AZD7762] (first compound 5 µM, partner dose 0.1 µM)	94.5%	101%	112%	69.5%	61.9%	88%	94.9%	74.4%	44%	105%
Cn1cncc1[C@@](N)(c1ccc(Cl)cc1)c1ccc2c(c1)c(-c1cccc(Cl)c1)cc(=O)n2C [tipifarnib] + O=C(Nc1ccccc1)c1cc([N+](=O)[O-])ccc1Cl [GW9662] (first compound 0.05 µM, partner dose 10 µM)	62.4%	83.5%	91%	63.1%	72.7%	84.8%	97.4%	72.7%	52.7%	70.1%
CC1(C)NC(=O)N(c2ccc([N+](=O)[O-])c(C(F)(F)F)c2)C1=O [nilutamide] + Cc1cc(N2CCOCC2)cc2[nH]c(-c3c(NC[C@@H](O)c4cccc(Cl)c4)cc[nH]c3=O)nc12 [BMS536924] (first compound 5 µM, partner dose 1 µM)	69.7%	96.5%	98.9%	81.6%	70.8%	103%	109%	74.2%	91%	98.6%
Cn1cncc1[C@@](N)(c1ccc(Cl)cc1)c1ccc2c(c1)c(-c1cccc(Cl)c1)cc(=O)n2C [tipifarnib] + COC(=O)c1sccc1S(=O)(=O)Nc1ccc(Nc2ccccc2)cc1OC [GSK0660] (first compound 0.05 µM, partner dose 5 µM)	80.9%	83.7%	81.3%	112%	107%	102%	85.1%	81.9%	80.5%	72.5%
C[C@@H]1CCN(C(=O)CC#N)C[C@@H]1N(C)c1ncnc2[nH]ccc12 + Cn1cc(/C=C2\C(=O)Nc3cccnc32)c2ccccc21 [GW441756] (first compound 5 µM, partner dose 2 µM)	89.8%	99.8%	102%	92.1%	102%	107%	105%	108%	77%	117%
O=C(O)c1ccc(-c2c[nH]c3ncc(-c4ccccc4)cc23)cc1C1CCCC1 + O=C(O)C(=O)Nc1sc2c(c1C(=O)O)CCNC2 [TCS401] (first compound 0.8 µM, partner dose 8.33333 µM)	86%	78.9%	97.4%	102%	83.2%	73.7%	81.2%	81.8%	105%	25.6%
O=c1[nH]nc(Sc2ncc([N+](=O)[O-])s2)n1-c1ccc2c(c1)OCCO2 + Cn1cnc2c(F)c(Nc3ccc(Br)cc3Cl)c(C(=O)NOCCO)cc21 [selumetinib] (first compound 1 µM, partner dose 0.075 µM)	63%	50.4%	87.1%	41.4%	109%	75.8%	54.2%	72.3%	96.8%	60.5%
